According to publication PMC11043394:
No constants are given. Whether binding was seen depends on the method and setting. Binding seen in cells or lysates may run through a third protein. Some binding calls cover weakened binding; strength is not graded here. For some assays here: Tags and fused reporters may be left off the sequences shown.

Chains of the proteins cited; added tags and fusions are not shown.
UniProt P51812: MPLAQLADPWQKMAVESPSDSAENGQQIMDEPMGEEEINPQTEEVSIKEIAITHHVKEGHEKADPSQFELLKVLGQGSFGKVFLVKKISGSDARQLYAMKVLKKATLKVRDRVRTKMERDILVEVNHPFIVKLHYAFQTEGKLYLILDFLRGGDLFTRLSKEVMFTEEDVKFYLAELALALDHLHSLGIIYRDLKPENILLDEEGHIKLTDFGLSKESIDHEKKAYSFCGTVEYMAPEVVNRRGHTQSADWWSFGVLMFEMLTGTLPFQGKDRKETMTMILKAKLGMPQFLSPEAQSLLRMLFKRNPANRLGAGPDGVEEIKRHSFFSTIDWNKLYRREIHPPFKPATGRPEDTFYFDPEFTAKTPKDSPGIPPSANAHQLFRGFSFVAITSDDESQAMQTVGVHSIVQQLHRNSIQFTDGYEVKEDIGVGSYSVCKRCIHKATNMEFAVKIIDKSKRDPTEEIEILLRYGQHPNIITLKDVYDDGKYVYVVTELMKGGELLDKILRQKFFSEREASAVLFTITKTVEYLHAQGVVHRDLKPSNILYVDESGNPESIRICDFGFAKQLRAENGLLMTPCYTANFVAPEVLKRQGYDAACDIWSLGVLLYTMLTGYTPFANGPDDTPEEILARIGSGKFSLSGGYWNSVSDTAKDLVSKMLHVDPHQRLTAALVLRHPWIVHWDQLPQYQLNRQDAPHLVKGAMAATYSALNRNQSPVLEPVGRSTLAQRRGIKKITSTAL
UniProt P18654: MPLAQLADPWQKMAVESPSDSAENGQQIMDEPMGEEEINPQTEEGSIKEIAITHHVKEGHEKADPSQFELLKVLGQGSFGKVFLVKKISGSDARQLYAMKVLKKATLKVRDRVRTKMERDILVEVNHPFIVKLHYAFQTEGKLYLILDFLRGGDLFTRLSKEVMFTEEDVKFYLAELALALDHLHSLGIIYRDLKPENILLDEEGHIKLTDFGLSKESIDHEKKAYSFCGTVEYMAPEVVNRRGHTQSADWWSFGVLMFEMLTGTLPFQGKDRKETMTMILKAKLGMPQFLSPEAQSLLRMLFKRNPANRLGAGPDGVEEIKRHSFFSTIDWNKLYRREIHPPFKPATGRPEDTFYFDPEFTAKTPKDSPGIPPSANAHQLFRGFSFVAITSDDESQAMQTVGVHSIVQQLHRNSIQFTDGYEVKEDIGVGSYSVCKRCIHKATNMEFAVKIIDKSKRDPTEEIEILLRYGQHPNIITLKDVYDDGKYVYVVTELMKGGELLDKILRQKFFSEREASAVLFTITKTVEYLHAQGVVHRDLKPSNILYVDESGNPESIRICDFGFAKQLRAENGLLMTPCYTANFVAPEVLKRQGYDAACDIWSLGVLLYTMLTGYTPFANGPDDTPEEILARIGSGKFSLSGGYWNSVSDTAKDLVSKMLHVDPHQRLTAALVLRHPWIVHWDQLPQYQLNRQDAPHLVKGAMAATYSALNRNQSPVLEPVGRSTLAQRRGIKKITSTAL

How the values were obtained:
[1] = target: HA-RSK2 (p90 ribosomal S6 kinase 2) (UniProt P51812); experiment: co-IP; HEK293T lysates (200 µg) transiently expressing HA-RSK2 and a Flag-FOXO construct; NP-40 lysis buffer (50 mM Tris-HCl pH 8.0, 120 mM NaCl, 0.5% NP-40); HA-antibody beads overnight at 4 °C; NETN wash; Western blot
GST-RSK2 = GST-RSK2 (UniProt P51812); experiment: pull-down; GST-RSK2 from E. coli bound to glutathione beads; cell lysates transiently expressing Flag-FOXO1 or Flag-FOXO4; ex vivo pull-down, Western blot with Flag-specific antibodies; only the target purified
GST-FOXO4 = GST-FOXO4 (UniProt P98177); experiment: pull-down; GST-FOXO4 from E. coli on GST-sepharose beads; B16F10 cell lysate; bound endogenous RSK2 seen by Western blot (ex vivo pull-down); only the target purified

Row | Molecule | binding [1] | binding (GST-RSK2) | binding (GST-FOXO4)
1 | endogenous RSK2 of B16F10 mouse melanoma cells (from UniProt P18654 1-740) (enzyme) |  |  | binds
2 | Flag-FOXO4-1-100 (domain or fragment, UniProt P98177 1-100) MDPGNENSATEAAAIIDLDPDFEPQSRPRSCTWPLPRPEIANQPSEPPEVEPDLGEKVHTEGRSEPILLPSRLPEPAGGPQPGILGAVTGPRKGGSRRNA | no binding |  | 

Second part, the molecule after the results:

Row | binding [1] | binding (GST-RSK2) | binding (GST-FOXO4) | Molecule
3 | binds |  |  | Flag-FOXO4 deletion mutant to residue 180 (FOXO4 1-180) (from UniProt P98177 1-180) (domain or fragment)
4 | binds | binds |  | Flag-FOXO4-wt (forkhead box protein O4, from pCS2 + N-Flag-FOXO4) (from UniProt P98177 1-505)
